Laboratory results reported in the BET-seq Pho4 binding data (Le et al. 2018).
The other results are listed elsewhere or left out. These are noisy estimates, calculated here from bound and input reads.

What follows are sequences tested against T1, Pho4 (S. cerevisiae) (UniProt P07270) (assay: relative binding free energy (BET-seq); higher = weaker binding). Settings: reference: library average.
T1 sequence: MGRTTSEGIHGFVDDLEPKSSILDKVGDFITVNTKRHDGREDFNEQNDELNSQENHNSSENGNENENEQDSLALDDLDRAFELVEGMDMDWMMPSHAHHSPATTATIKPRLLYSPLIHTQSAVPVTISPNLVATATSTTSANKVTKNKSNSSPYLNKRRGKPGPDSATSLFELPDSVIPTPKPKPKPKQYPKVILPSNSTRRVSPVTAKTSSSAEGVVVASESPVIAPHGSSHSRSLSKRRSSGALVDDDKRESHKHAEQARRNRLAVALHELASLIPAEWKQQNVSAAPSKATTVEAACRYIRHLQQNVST
In the case of ATTTTCACGTGCGGAG, the “relative binding free energy” value was 0.26 kcal/mol.
With GTAAACACGTGCGTGG the “relative binding free energy” value was -0.09 kcal/mol.
For TCTTGCACGTGAGGTT, the “relative binding free energy” value was 0.16 kcal/mol.
In the case of TGAGGCACGTGGTTTA, the “relative binding free energy” value was -0.1 kcal/mol.
GTAATCACGTGTGGGG was tested, and the “relative binding free energy” value was 0.27 kcal/mol.
With GGGCCCACGTGGGAAG the “relative binding free energy” value was -0.04 kcal/mol.
With GGAAGCACGTGTGCAG the “relative binding free energy” value was -0.02 kcal/mol.
For TATCTCACGTGGGGGA, the “relative binding free energy” value was 0.08 kcal/mol.
With GTGCGCACGTGTTGAT the “relative binding free energy” value was -0.14 kcal/mol.
AAGGGCACGTGAGGGC was tested, and the “relative binding free energy” value was 0.04 kcal/mol.
In the case of TTACTCACGTGGTTCT, the “relative binding free energy” value was 0.26 kcal/mol.
In the case of GTGCTCACGTGCTGGA, the “relative binding free energy” value was 0.24 kcal/mol.
For AGTCTCACGTGACTGG, the “relative binding free energy” value was 0.37 kcal/mol.
In the case of ACTGACACGTGTAGGG, the “relative binding free energy” value was 0.11 kcal/mol.
GCGTGCACGTGGTTTA was tested, and the “relative binding free energy” value was -0.1 kcal/mol.
TATAACACGTGGTGTG was tested, and the “relative binding free energy” value was -0.13 kcal/mol.
TGGCTCACGTGAGGTT was tested, and the “relative binding free energy” value was 0.3 kcal/mol.
With TAGTGCACGTGACGGA the “relative binding free energy” value was 0.21 kcal/mol.
GTTAGCACGTGGTCGA was tested, and the “relative binding free energy” value was -0.08 kcal/mol.
GGTGACACGTGCGGGG was tested, and the “relative binding free energy” value was 0.02 kcal/mol.
In the case of TTTGGCACGTGCTTCT, the “relative binding free energy” value was -0.21 kcal/mol.
For TGGCGCACGTGAAGCG, the “relative binding free energy” value was 0.13 kcal/mol.
In the case of TGGGACACGTGCTTGG, the “relative binding free energy” value was -0.06 kcal/mol.
CGGTGCACGTGGCAGT was tested, and the “relative binding free energy” value was -0.18 kcal/mol.
With TTAGGCACGTGTGAAT the “relative binding free energy” value was -0.1 kcal/mol.
For CGGTACACGTGGGGGA, the “relative binding free energy” value was -0.15 kcal/mol.
In the case of TTAATCACGTGTATTA, the “relative binding free energy” value was 0.03 kcal/mol.
ATGGTCACGTGCATTG was tested, and the “relative binding free energy” value was 0.05 kcal/mol.
With TTCATCACGTGTTGAG the “relative binding free energy” value was 0.14 kcal/mol.
With TATGGCACGTGGCGTT the “relative binding free energy” value was -0.26 kcal/mol.
TTCGACACGTGTGTAG was tested, and the “relative binding free energy” value was 0.09 kcal/mol.
With TTTTACACGTGGCGGG the “relative binding free energy” value was 0.14 kcal/mol.
With CGAGGCACGTGGGGTC the “relative binding free energy” value was -0.21 kcal/mol.
TATAGCACGTGGCTAG was tested, and the “relative binding free energy” value was -0.16 kcal/mol.
TTCTTCACGTGTATGT was tested, and the “relative binding free energy” value was 0.24 kcal/mol.
GTTAACACGTGTTGAG was tested, and the “relative binding free energy” value was -0.02 kcal/mol.
In the case of CGTGTCACGTGGTGGC, the “relative binding free energy” value was -0.01 kcal/mol.
In the case of ACGTACACGTGTGTTG, the “relative binding free energy” value was -0.03 kcal/mol.
TCCGGCACGTGTGGGG was tested, and the “relative binding free energy” value was -0.02 kcal/mol.
For GACTTCACGTGTGGAG, the “relative binding free energy” value was 0.39 kcal/mol.
With AGTATCACGTGTAGGC the “relative binding free energy” value was 0.08 kcal/mol.
GGGGACACGTGAGTTA was tested, and the “relative binding free energy” value was 0.22 kcal/mol.
For TTAGTCACGTGTTTCG, the “relative binding free energy” value was 0.05 kcal/mol.
With TGGTTCACGTGGGTAG the “relative binding free energy” value was 0.2 kcal/mol.
For GTAAGCACGTGAAAGG, the “relative binding free energy” value was 0.19 kcal/mol.
For GTCAGCACGTGAATGG, the “relative binding free energy” value was 0.08 kcal/mol.
With TGGAGCACGTGTAGTT the “relative binding free energy” value was 0 kcal/mol.
With TATATCACGTGGATGA the “relative binding free energy” value was 0.13 kcal/mol.
GGTTACACGTGTCTTT was tested, and the “relative binding free energy” value was 0.2 kcal/mol.
With GGAAACACGTGTGGGA the “relative binding free energy” value was -0.1 kcal/mol.
ATGTACACGTGGCTTA was tested, and the “relative binding free energy” value was -0.04 kcal/mol.
In the case of ATGCACACGTGAAGGG, the “relative binding free energy” value was 0.15 kcal/mol.
In the case of TGAGCCACGTGGTGGG, the “relative binding free energy” value was -0.17 kcal/mol.
With TGATTCACGTGGAAGT the “relative binding free energy” value was 0.31 kcal/mol.
With ATGTTCACGTGGCATG the “relative binding free energy” value was 0.16 kcal/mol.
In the case of AGGGTCACGTGCGTTT, the “relative binding free energy” value was 0.08 kcal/mol.
For GGATGCACGTGGCTGG, the “relative binding free energy” value was -0.12 kcal/mol.
With GAGAGCACGTGTTAGT the “relative binding free energy” value was -0.15 kcal/mol.
ATTGCCACGTGGTCGT was tested, and the “relative binding free energy” value was -0.16 kcal/mol.
GCCGGCACGTGAAGGT was tested, and the “relative binding free energy” value was 0.24 kcal/mol.
TTTAGCACGTGAGCTA was tested, and the “relative binding free energy” value was 0.16 kcal/mol.
For GTGGCCACGTGTGGGG, the “relative binding free energy” value was 0.04 kcal/mol.
In the case of CGGTGCACGTGTGAAG, the “relative binding free energy” value was -0.03 kcal/mol.
GTTTCCACGTGTGTGG was tested, and the “relative binding free energy” value was 0.14 kcal/mol.
With TTTAGCACGTGAAGGT the “relative binding free energy” value was 0.18 kcal/mol.
For TGGATCACGTGGTTGC, the “relative binding free energy” value was 0.12 kcal/mol.
In the case of CATGTCACGTGGATGA, the “relative binding free energy” value was 0.03 kcal/mol.
For AGGAGCACGTGAGGTG, the “relative binding free energy” value was 0.12 kcal/mol.
TTTTACACGTGGTACG was tested, and the “relative binding free energy” value was 0.11 kcal/mol.
For GGATGCACGTGTTGGG, the “relative binding free energy” value was 0.05 kcal/mol.
With GGGGGCACGTGTCAAT the “relative binding free energy” value was -0.06 kcal/mol.
TTGCTCACGTGATTAG was tested, and the “relative binding free energy” value was 0.35 kcal/mol.
With AGGTTCACGTGGCTAG the “relative binding free energy” value was 0.15 kcal/mol.
For TGTCACACGTGTCAGG, the “relative binding free energy” value was 0.16 kcal/mol.
With AGGCACACGTGGTTTG the “relative binding free energy” value was -0.02 kcal/mol.
In the case of CTAGTCACGTGTTGGA, the “relative binding free energy” value was 0.09 kcal/mol.
With CGGAGCACGTGTGGCG the “relative binding free energy” value was -0.14 kcal/mol.
In the case of AGGGCCACGTGCGGCG, the “relative binding free energy” value was -0.14 kcal/mol.
TATGACACGTGATGAG was tested, and the “relative binding free energy” value was -0.03 kcal/mol.
With GTGGTCACGTGGAGTA the “relative binding free energy” value was 0.03 kcal/mol.
In the case of ATATGCACGTGTCGGT, the “relative binding free energy” value was -0.1 kcal/mol.
In the case of TAGGTCACGTGGCGGC, the “relative binding free energy” value was 0.07 kcal/mol.
For CTAAGCACGTGGTTTT, the “relative binding free energy” value was -0.15 kcal/mol.
In the case of TTGGGCACGTGGTTAC, the “relative binding free energy” value was -0.15 kcal/mol.
For TTGTTCACGTGATCAA, the “relative binding free energy” value was 0.42 kcal/mol.
CGGGTCACGTGTTGAA was tested, and the “relative binding free energy” value was 0.08 kcal/mol.
GTTGTCACGTGTAATG was tested, and the “relative binding free energy” value was 0.13 kcal/mol.
For TAGTACACGTGGGGTG, the “relative binding free energy” value was -0.13 kcal/mol.
GTCGGCACGTGCGGGA was tested, and the “relative binding free energy” value was 0.02 kcal/mol.
In the case of AATTGCACGTGTGGGA, the “relative binding free energy” value was 0.01 kcal/mol.
In the case of GATTTCACGTGGAGGA, the “relative binding free energy” value was 0.38 kcal/mol.
For GAGATCACGTGGATGG, the “relative binding free energy” value was 0.12 kcal/mol.
For ACATTCACGTGTGGGT, the “relative binding free energy” value was 0.2 kcal/mol.
With TGGGTCACGTGCTTGA the “relative binding free energy” value was 0.12 kcal/mol.
AAGTGCACGTGTGCGT was tested, and the “relative binding free energy” value was -0.04 kcal/mol.
With TGCCTCACGTGGTTGG the “relative binding free energy” value was 0.08 kcal/mol.
In the case of GGTGGCACGTGGCTGA, the “relative binding free energy” value was -0.08 kcal/mol.
For GTCTGCACGTGTGTTT, the “relative binding free energy” value was 0.18 kcal/mol.
For TGGGACACGTGAGTAG, the “relative binding free energy” value was 0.19 kcal/mol.
In the case of GGAGCCACGTGGAGGT, the “relative binding free energy” value was -0.03 kcal/mol.
With GAATTCACGTGATGTT the “relative binding free energy” value was 0.23 kcal/mol.
TGGGTCACGTGTGTCC was tested, and the “relative binding free energy” value was 0.15 kcal/mol.
With TTCGGCACGTGATTGG the “relative binding free energy” value was 0.12 kcal/mol.
With ACGGTCACGTGTTGCA the “relative binding free energy” value was 0.15 kcal/mol.
For AGGGGCACGTGAGATA, the “relative binding free energy” value was 0.19 kcal/mol.
For GGCCGCACGTGGCGGT, the “relative binding free energy” value was -0.07 kcal/mol.
With GTGGGCACGTGGATTG the “relative binding free energy” value was 0.05 kcal/mol.
For GTAGTCACGTGAGGCG, the “relative binding free energy” value was 0.28 kcal/mol.
With CGGAACACGTGTGGGT the “relative binding free energy” value was -0.04 kcal/mol.
In the case of AGTCTCACGTGAGGGC, the “relative binding free energy” value was 0.39 kcal/mol.
TAACACACGTGTGTGT was tested, and the “relative binding free energy” value was 0.05 kcal/mol.
In the case of CTGGGCACGTGATGAG, the “relative binding free energy” value was 0.04 kcal/mol.
For TCATGCACGTGGGTTG, the “relative binding free energy” value was -0.18 kcal/mol.
ATATCCACGTGTTGTG was tested, and the “relative binding free energy” value was -0.08 kcal/mol.
With TGATGCACGTGTGTGT the “relative binding free energy” value was 0.06 kcal/mol.
